The campaign covered roughly 310,000 compounds. About 2,200 (0.71%) showed an effect of 50% or more. Effects have a minus sign here. The list shows a part of the results.
Each compound was assayed against human ether-à-go-go-related gene (hERG) potassium channel (human, UniProt Q12809) (assay: primary screen, population patch clamp on CHO cells stably expressing hERG).
human ether-à-go-go-related gene (hERG) potassium channel, sequence (Q12809 whole entry, looked up): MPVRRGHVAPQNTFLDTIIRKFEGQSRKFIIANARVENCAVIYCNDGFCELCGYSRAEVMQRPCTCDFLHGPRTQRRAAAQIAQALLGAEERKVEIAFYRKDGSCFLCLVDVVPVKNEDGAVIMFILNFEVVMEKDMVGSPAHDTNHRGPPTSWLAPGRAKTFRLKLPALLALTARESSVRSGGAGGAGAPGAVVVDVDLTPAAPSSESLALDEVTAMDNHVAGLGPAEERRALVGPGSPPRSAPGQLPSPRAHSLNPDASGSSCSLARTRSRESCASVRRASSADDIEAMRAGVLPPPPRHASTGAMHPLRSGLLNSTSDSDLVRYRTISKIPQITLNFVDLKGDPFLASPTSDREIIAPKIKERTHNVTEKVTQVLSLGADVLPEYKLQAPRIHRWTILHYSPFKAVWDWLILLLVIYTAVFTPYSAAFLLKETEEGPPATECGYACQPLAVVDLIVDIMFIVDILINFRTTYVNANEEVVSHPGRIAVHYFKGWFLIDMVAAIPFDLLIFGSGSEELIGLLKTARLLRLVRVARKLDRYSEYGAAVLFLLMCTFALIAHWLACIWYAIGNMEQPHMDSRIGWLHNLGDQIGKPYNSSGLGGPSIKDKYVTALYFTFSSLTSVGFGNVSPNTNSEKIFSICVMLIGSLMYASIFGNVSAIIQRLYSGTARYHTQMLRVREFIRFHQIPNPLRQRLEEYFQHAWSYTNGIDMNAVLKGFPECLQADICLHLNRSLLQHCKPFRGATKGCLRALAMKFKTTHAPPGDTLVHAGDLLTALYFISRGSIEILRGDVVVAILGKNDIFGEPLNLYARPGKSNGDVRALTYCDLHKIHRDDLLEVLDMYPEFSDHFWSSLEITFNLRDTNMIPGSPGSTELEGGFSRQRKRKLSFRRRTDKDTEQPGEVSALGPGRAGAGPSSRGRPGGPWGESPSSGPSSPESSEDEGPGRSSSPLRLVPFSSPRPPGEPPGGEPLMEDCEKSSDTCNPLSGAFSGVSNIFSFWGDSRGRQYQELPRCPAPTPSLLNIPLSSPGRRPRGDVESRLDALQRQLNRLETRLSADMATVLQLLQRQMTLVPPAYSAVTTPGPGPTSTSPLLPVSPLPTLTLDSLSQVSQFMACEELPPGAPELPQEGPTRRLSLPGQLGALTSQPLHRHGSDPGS

Row | Structure (SMILES) | hERG current change (%, negative = inhibition) at 1uM [%]
1 | CCCCNc1nc2cccnc2s1 | 14.9
2 | CC(=O)Nc1nc(C)nc(-c2ccccc2OC(C)=O)n1 | 1.59
3 | COc1cccc(NC(=S)/C(=C(\[O-])c2ccc([N+](=O)[O-])cc2)[n+]2ccccc2)c1 | 17.7
4 | CCCCCC(=O)N1CCN(CCN=CC2=C(O)CC(c3cccs3)CC2=O)CC1 (centres unmarked) | -109
5 | CCOC(=O)c1c(NC(=O)Nc2ccc(C)cc2)sc2c1CCN(C)C2 | 9.62
6 | COc1cccc(NC(=O)CN(C)C(=O)c2cccc(NS(=O)(=O)c3ccccc3)c2)c1 | 4.21
7 | CCOC(=O)C1CCCN(C2CC(=O)N(c3ccc(C(C)C)cc3)C2=O)C1 (centres unmarked) | 4.04
8 | COc1ccc(NC(=O)c2ccccc2C(=O)N2CCCCC2)cc1 | 5.4
9 | O=S(=O)(Cc1noc(-c2ccccc2Cl)n1)c1ccccn1 | 9.02
10 | Cc1ccc(Cl)cc1NC(=S)N(CCN(C)C)C(C)c1ccccn1 (centres unmarked) | 3.51
11 | CC(=O)c1sc(N/N=C\c2ccc(Br)cc2)nc1C | 10.8
12 | CCC(=O)NC(c1cc(Cl)c2cccnc2c1O)C(C)C (centres unmarked) | -2.41
13 | CC(=O)/C(=N\Nc1cccc(Cl)c1)Sc1cccc2cccnc12 | -2.93
14 | COC(=O)NCC12CC3CC(C1)CC(CNC(=O)OC)(C3)C2 | 8.73
15 | O=C(Cn1c(=O)sc2ccccc21)N1CCOCC1 | 4.68
16 | CC(C)=NNc1nc2sc3c(c2c(=O)[nH]1)CC(C)(C)OC3 | -12.9
17 | COc1ccc(CCNC(=O)C(=O)NCc2cccs2)cc1OC | 14.2
18 | O=C(NCc1ccco1)c1ccc(Cl)s1 | 13.1
19 | O=S(=O)(NCc1ccco1)c1cccc(S(=O)(=O)N2CCCCC2)c1 | -1.83
20 | CCc1ccccc1N(C(=O)c1snc(C(N)=O)c1N)C(C(=O)NCC1CCCO1)c1c[nH]c2ccccc12 (centres unmarked) | 11.8
21 | Cc1cc(C)n2nc(C(=O)NC(C)(C)C)nc2n1 | 5.19
22 | O=C(NCC1CCCO1)c1coc2nc3ccccc3nc12 (centres unmarked) | -10.9
23 | C=CCNS(=O)(=O)c1ccc(OCC(=O)OCC)cc1 | 11.3

Row | Structure (SMILES) | hERG current change (%, negative = inhibition) at 1uM [%]
24 | COc1ccc(-c2noc(N3CCC(C(=O)Nc4ccccc4Cl)CC3)n2)cc1 | 12.7
25 | O=C(CN1C(=O)/C(=C\c2ccc(F)cc2)Oc2ccccc21)NCc1ccco1 | 3.83
26 | O=C(O)COc1ccc(/C=N/n2c(COc3ccccc3)nc3ccccc3c2=O)cc1 | 20.2
27 | O=C(NCCC1=CCCCC1)C1CCN(S(=O)(=O)N2CCOCC2)CC1 | -2.77
28 | CCCn1c(NC(=O)C23CC4CC(CC(O)(C4)C2)C3)nc2ccccc21 | 9.1
29 | O=C(CCC(=O)Nc1ccc(Br)cc1)N/N=C/c1ccc(O)cc1 | 9.09
30 | O=C(COc1cc2oc(=O)cc(-c3ccccc3)c2cc1Cl)NCC1CCC(C(=O)O)CC1 (centres unmarked) | -9.56
31 | Cc1ccc(C(=O)N/N=C/c2nc3ccccc3n2C)cc1 | 16.2
32 | O=C(Nc1cccc(Cl)c1)NC1(C(=O)NCc2cccs2)CCCCC1 | 8.9
33 | Cc1ccc(NC(=O)CN(c2ccccc2)S(=O)(=O)N(C)C)cc1 | 5.07
34 | O=C(NC1CCCC1)c1ccc(CS(=O)(=O)Cc2ccccc2F)o1 | 9.65
35 | COc1ccc(C(=O)NC2CCCc3ccccc32)cc1OC1CCN(C(C)=O)CC1 (centres unmarked) | 3.31
36 | Fc1ccccc1Nc1nc2ccccc2o1 | 4.61
37 | Cc1c(NC(=O)C(C)OC(=O)c2cc(Cl)nc(Cl)c2)c(=O)n(-c2ccccc2)n1C (centres unmarked) | 8.62
38 | CCN1/C(=C/c2ccc3ccccc3[n+]2CC)C=Cc2ccccc21.[Cl-] | -89.5
39 | CC1CN(C(=O)CCC(=O)NC2CCN(Cc3ccccc3)CC2)c2ccccc2O1 (centres unmarked) | -1.62
40 | COC(=O)C1=C(C(=O)c2ccccc2)C(c2cccs2)n2nnnc2N1 (centres unmarked) | 19.3
41 | COc1cc(/C=C/C(=O)O)ccc1OS(=O)(=O)c1c(C)c(C)cc(C)c1C | -8.13
42 | COc1cc(NC(=O)C(C)C)ccc1NC(=O)c1cc2ccccc2o1 | 19
43 | Cc1cc(NC(=O)c2cccc(S(=O)(=O)N(C)C)c2)n(-c2ccccn2)n1 | 11.3
44 | Cc1ccc(NC(=O)C2c3ccccc3Oc3ccccc32)c(C)c1 | 5.9
45 | CCOCCCN1CN(Cc2ccccc2)CNC1=S | 17.3
46 | Cc1cc(NC(=O)COC(=O)c2c(C)noc2C)ccc1Br | 10.9

Row | Structure (SMILES) | hERG current change (%, negative = inhibition) at 1uM [%]
47 | CCOC(=O)c1c[nH][nH]c1=O | 9.83
48 | O=C(O)c1cccc(N2C(=O)c3ccc(C(=O)c4cccc([N+](=O)[O-])c4)cc3C2=O)c1 | 15.3
49 | c1ccc(C2=Nc3ccccc3NC(c3ccccc3)C2)cc1 (centres unmarked) | -3.13
50 | CCCc1nc2oc(C(=O)OCC)c(N)c2c2c1COC(C)(C)C2 | -9.15
51 | COC(=O)c1cc2c(=O)c3ccccc3oc2nc1/C=C/N(C)C | 9.48
52 | Cc1cc(Cl)ccc1OCC(=O)NCc1ccncc1 | 8.14
53 | CCCCn1c(N)c(N(CC(C)C)C(=O)c2cnccn2)c(=O)[nH]c1=O | 14.8
54 | CC(=O)Nc1ccc(CN2CCCC(CCC(=O)NCc3ccccc3F)C2)cc1 (centres unmarked) | 7.17
55 | O=C(c1cccnc1)N1CCN(S(=O)(=O)c2ccc(S(=O)(=O)N3CCCC3)cc2)CC1 | 10.9
56 | O=C(CSCc1ccccc1)Nc1cccc(C(=O)Nc2ccccc2C(=O)O)c1 | 7.78
57 | CCCOc1ccccc1/C=C1\SC(N)=NC1=O | 8.45
58 | Nc1ccc(C(=O)OCC(=O)Nc2ccc3c(c2)OCO3)cc1[N+](=O)[O-] | -1.03
59 | CCN(CC)CC(=O)c1ccc(-c2ccccc2)cc1 | -3.93
60 | O=C(Nc1nc2c(Cl)c(Cl)ccc2s1)C1CC1 | 8.24
61 | CCCN(CCC)S(=O)(=O)c1ccc(C(=O)OCCN2C(=O)c3cccc4c(N5CCOCC5)ccc(c34)C2=O)cc1 | 2.45
62 | O=C(NCCc1ccc(Cl)cc1)Nc1ccc(Cl)cc1 | 11.8
63 | CCOP(=O)(OCC)C(C#N)=C1SCN(c2ccccc2)CS1 | 8.13
64 | Cc1ccc2nc(NC(=O)C3CC3C)sc2c1 (centres unmarked) | 12
65 | COc1ccccc1Cn1nnc2c(=O)[nH]c(C3CCN(C(=O)c4ccc(F)cc4)CC3)nc21 | 11
66 | COC(=O)c1ccc(Cn2c(CN3CCOCC3)nc3ccccc3c2=O)o1 | 5.22
67 | C=CCn1c(SCCOc2ccc(OC)cc2)nnc1C(NC(=O)c1ccc(OC)cc1)C(C)C (centres unmarked) | -14.2
68 | Cc1ccc(S(=O)(=O)N2CCCN(c3nc4cc(C)ccc4cc3C#N)CC2)cc1 | 13.9
69 | O=C1/C(=N/n2cnnc2)c2ccccc2N1Cc1ccccc1 | 9.42

Row | Structure (SMILES) | hERG current change (%, negative = inhibition) at 1uM [%]
70 | O=C(NCc1ccc2c(c1)OCO2)C1(S(=O)(=O)c2ccccc2)CC1 | 9.27
71 | COCCn1c(SCC(=O)NC(=O)Cc2ccccc2)nc2ccccc2c1=O | 1.36
72 | Cn1nc(C(F)(F)F)c(C(=O)Nc2cccc(Cl)c2)c1Cl | 2.7
73 | CC1CCN(CC(=O)Nc2ccc(S(=O)(=O)N3C(C)CCCC3C)cc2)CC1 (centres unmarked) | 7.85
74 | COc1ccc(C(=O)Nc2ccc(S(=O)(=O)N3CCOCC3)cc2)cc1[N+](=O)[O-] | 17.5
75 | O=C(NCc1ccco1)C1CC2CCC1C2 (centres unmarked) | 6.07
76 | COc1ccc(O)c(C(=O)c2cnn(C(=O)c3ccc(C)cc3)c2)c1 | 7.06
77 | COc1ccc(C(=O)NCC(=O)N2CCC(C)CC2)cc1OC | 9.11
78 | COCCCNC(=O)/C=C/c1c(Cl)cccc1Cl | 15.8
79 | Clc1ccc(CNc2nc(N3CCOCC3)nc(N3CCOCC3)n2)cc1 | 7.55
80 | COc1ccc(C(=O)C[n+]2cc(-c3ccc(OC)cc3)n3c2CCCC3)cc1.[Br-] | 11.5
81 | COc1ccccc1N(CC(=O)N1CCN(c2ccccc2)CC1)S(=O)(=O)c1ccc(C)cc1 | 12.9
82 | CCOC(=O)C1C2c3ccccc3O[C@@]1(C)N=C1SCC(=O)N12 (some centres unmarked) | 14.6
83 | Cc1ccc(-n2ncc3c2CCCC3NC(=O)CCn2ccnc2C)cc1C (centres unmarked) | 14.1
84 | N#C/C(=C\c1cccc(Cl)c1)C(=O)c1ccccc1 | 11.6
85 | CCOC(=O)N1CCN(c2ncnc3scc(-c4ccc(Cl)cc4)c23)CC1 | 14.2
86 | NS(=O)(=O)c1ccc(CNc2ncnc3sccc23)cc1 | 14.2
87 | CC(Oc1ccc2c(c1)oc(=O)c1ccccc12)C(=O)NCCN1CCOCC1 (centres unmarked) | -6.43
88 | Cn1c(=O)c2c(nc(N/N=C/c3cccs3)n2C)n(C)c1=O | 11.6
89 | O=C(CSc1nc2ccccc2[nH]1)N/N=C/c1ccco1 | 3.19

From publication PMC4336329 (PLoS ONE, 2015)
